# Test results from PubChem BioAssay (NCATS).
# Where “and” joins values, the source holds several entries; their conditions need not be identical. Equal values may be shown once. The shares of active, inactive and inconclusive entries below differ from those in the screen. Potencies beside an inconclusive call are fits to weak or partial responses and may not hold up. Some structures have more than one record in an assay (separate samples or runs), and their calls can disagree. Calls of active or inactive are those of the source. Calls follow the shape of the dose curve; as a rule, active = well fitted curve in the direction sought with a large enough effect; inconclusive = small, poorly fitted or top-dose-only effect, or another doubt; inactive = no such curve, though single readings can be large; an effect the other way counts as inactive or inconclusive. Residues, ends and D or L forms follow the SMILES beside them. *: point of attachment. Cbz = O=C(OCc1ccccc1)*
# How the values were obtained:
# [1] = biological target: Cellular tumor antigen p53 (Homo sapiens) (UniProt P04637); assay: Primary qHTS for small molecule compounds that upregulate eGFP-tagged delta133p53alpha (in N-terminal) cells. (AID 2060322); settings: NCI-H358 eGFP-delta133p53alpha fluorescence, 24 h; activation: stronger effect = higher value; also: nearly all actives have a fitted effect of over 75% in size;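 as to activation: 0% = DMSO vehicle and 100% = reference activator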
# Sequence of UniProt P04637 (P04637 whole entry, looked up): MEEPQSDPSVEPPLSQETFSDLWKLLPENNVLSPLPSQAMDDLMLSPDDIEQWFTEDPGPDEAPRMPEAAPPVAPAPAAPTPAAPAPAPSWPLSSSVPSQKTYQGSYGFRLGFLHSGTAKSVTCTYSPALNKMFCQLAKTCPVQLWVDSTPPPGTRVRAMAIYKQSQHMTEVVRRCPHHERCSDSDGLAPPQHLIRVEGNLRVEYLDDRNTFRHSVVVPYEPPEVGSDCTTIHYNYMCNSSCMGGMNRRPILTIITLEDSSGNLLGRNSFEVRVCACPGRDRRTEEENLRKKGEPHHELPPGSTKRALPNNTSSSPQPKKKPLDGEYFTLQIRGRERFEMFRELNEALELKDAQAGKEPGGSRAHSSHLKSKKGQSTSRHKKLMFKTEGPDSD
# Procedure, shortened: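 NCI-H358 cells pre-induced 24 h with 10 ng/ml doxycycline to express N-terminal eGFP-delta133p53alpha, then dosed 24 h at 37C without doxycycline; fixed, Hoechst-stained, GFP intensity by laser scanning cytometry, normalized to DMSO (0%) and 57.5 uM 5-azacytidine (100%).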
# [2] = BET inhibitor-based combinations targeting novel dependencies in MECOM-rearranged (r) AML: MV-4-11 cell line (AID 2202233); settings: MV-4-11 AML viability, CellTiter-Glo luminescence, 48 h; viability, % of control: at 46 µM (top of the series) unless noted; also: nearly all actives have a fitted effect of over 45% in size;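 as to viability, % of control: plate controls were DMSO for no effect and blank wells for full effect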
# Procedure, shortened: (§1)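 First, 500 cells per well were seeded; next, drugs were pinned as 11-point doses; then plates sat 48 hr in the incubator; finally CellTiter-Glo was added and luminescence read, with AUC and Z-AUC computed.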
# [3] = BET inhibitor-based combinations targeting novel dependencies in MECOM-rearranged (r) AML: HNT-34 cell line (AID 2202234); also: nearly all actives have a fitted effect of over 35% in size;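 as to viability (% of control): plate controls were vehicle wells for no effect and cell-free wells for full effect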
# Procedure, shortened: as §1
# [4] = BET inhibitor-based combinations targeting novel dependencies in MECOM-rearranged (r) AML: UCSD-AML1 cell line (AID 2202235); settings: UCSD-AML1 AML cells viability, CellTiter-Glo, 48 h; viability (% of control): at 46 µM (top of the series); also: nearly all actives have a fitted effect of over 40% in size;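 as to viability (% of control): plate controls were DMSO vehicle wells for no effect and blank wells for full effect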
# Procedure, shortened: as §1
# [5] = BET inhibitor-based combinations targeting novel dependencies in MECOM-rearranged (r) AML: AML-191 cell line (AID 2202236; also: nearly all actives have a fitted effect of over 35% in size;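 as to viability (% of control): plate controls were vehicle wells for no effect and wells without cells for full effect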)
# Procedure, shortened: (§2)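 Each compound was tested at eleven concentrations on cells seeded at 500/well. After two days' incubation, ATP-based luminescence reported viability; responses relative to DMSO and blank wells yielded AUC and cell-line-centred Z-AUC.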
# [6] = BET inhibitor-based combinations targeting novel dependencies in MECOM-rearranged (r) AML: AML-194 cell line (AID 2202237; also: nearly all actives have a fitted effect of over 40% in size;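 as to viability (% of control): plate controls were vehicle wells for no effect and wells without cells for full effect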)
# Procedure, shortened: as §2
# Potency is read from the fitted curve at half-maximal effect; tags tell the direction and shape of the fitted curve.
compound,measurement,setting,value
CC[C@@H]1C(=O)N(C)c2cnc(Nc3ccc(C(=O)NC4CCC(N5CCN(CC6CC6)CC5)CC4)cc3OC)nc2N1C(C)C (stereo partly specified),Potency,[1],"inconclusive: 30.1 µM [activator, partial curve, poor fit] and inconclusive: 33.8 µM [activator, partial curve, poor fit]"
same,Potency,[2],active: 0.118 µM
same,Potency,[3],"inconclusive: 0.118 µM [inhibitor, full curve]"
CCC[C@H](Nc1nc(-c2ccc(NC(=O)NCC)c(OC)c2)ncc1C)c1cccnc1,Potency,[1],"inconclusive: 0.0015 µM [activator, full curve, poor fit]"
same,Potency,[2],active: 0.0525 µM
same,Potency,[3],"inconclusive: 0.0934 µM [inhibitor, full curve]"
NC(=O)c1cccnc1,activation,[1],inactive: -14.2% and inactive: 9.71%
same,Potency,[2],inactive
same,Potency,[4],inactive
CC(C)(C#N)c1cc(Cn2cncn2)cc(C(C)(C)C#N)c1,Potency,[1],"inconclusive: 38.9 µM [activator, single point]"
same,Potency,[2],inactive
same,Potency,[4],inactive
same,Potency,[5],inactive
CNC(=O)c1nn(C)c2c1C(C)(C)Cc1cnc(Nc3ccc(N4CCN(C)CC4)cc3)nc1-2,Potency,[1],active: 38.5 µM and active: 9.53 µM
same,Potency,[2],active: 0.132 µM
same,Potency,[3],active: 0.263 µM
same,Potency,[5],active: 1.18 µM
same,Potency,[6],active: 1.32 µM
C#C[C@]1(O)CC[C@H]2[C@@H]3[C@H](C)CC4=C(CCC(=O)C4)[C@H]3CC[C@@]21C,Potency,[1],"inconclusive: 5.5 µM [activator, full curve, poor fit]"
same,Potency,[2],"inconclusive: 23.5 µM [inhibitor, single point]"
same,Potency,[3],"inconclusive: 20.9 µM [inhibitor, single point]"
same,Potency,[5],inactive
Cn1cc(-c2ccc(F)c(C(F)(F)F)c2)nc1C1CCN(c2ncnc3[nH]ncc23)CC1,Potency,[1],"inconclusive: 0.0153 µM [activator, full curve, poor fit]"
same,Potency,[2],"inconclusive: 3.72 µM [inhibitor, partial curve]"
same,Potency,[3],"inconclusive: 16.6 µM [inhibitor, partial curve]"
Cc1ccc(C2=Nc3ccc(Cl)cc3OC2)cc1,Potency,[1],"inconclusive: 0.769 µM [activator, full curve, poor fit]"
same,Potency,[2],"inconclusive: 16.6 µM [inhibitor, partial curve, poor fit]"
same,Potency,[3],"inconclusive: 11.8 µM [inhibitor, partial curve, poor fit]"
same,Potency,[6],inactive
O=NN(CCCl)C(=O)NC1CCCCC1,activation,[1],inactive: -3.35% and inactive: 3.74%
same,Potency,[2],inactive
same,Potency,[5],inactive
C[C@@H](O[C@H]1OCCN(Cc2n[nH]c(=O)[nH]2)[C@@H]1c1ccc(F)cc1)c1cc(C(F)(F)F)cc(C(F)(F)F)c1,Potency,[1],"inconclusive: 43.2 µM [activator, single point]"
same,Potency,[2],"inconclusive: 18.6 µM [inhibitor, partial curve, poor fit]"
same,Potency,[3],active: 18.6 µM
same,Potency,[4],"inconclusive: 11.8 µM [inhibitor, single point]"
same,Potency,[5],active: 16.6 µM
Cc1nnc(C(C)C)n1C1CC2CCC(C1)N2CC[C@H](NC(=O)C1CCC(F)(F)CC1)c1ccccc1 (stereo partly specified),activation,[1],inactive: -6.68%
same,Potency,[2],"inconclusive: 0.332 µM [inhibitor, full curve, poor fit]"
same,Potency,[3],inactive
same,Potency,[6],inactive
Nc1ccc(C(=O)Nc2cccc(-c3nc(N4CCOCC4)c4oc5ncccc5c4n3)c2)cn1,Potency,[1],"inconclusive: 15.1 µM [activator, partial curve, poor fit]"
same,Potency,[2],"inconclusive: 13.2 µM [inhibitor, partial curve, poor fit]"
CN1C(=O)C(Cc2c[nH]c3ccccc23)NC1=S (stereo unspecified),Potency,[1],"inconclusive: 43.2 µM [activator, single point]"
same,Potency,[2],"inconclusive: 3.32 µM [inhibitor, partial curve, poor fit]"
same,Potency,[4],"inconclusive: 33.2 µM [inhibitor, single point]"
O=C(O)c1cc(=O)c2c(OCC(O)COc3cccc4oc(C(=O)O)cc(=O)c34)cccc2o1,activation,[1],inconclusive: 27.9% [activator]
same,Potency,[2],"inconclusive: 0.296 µM [inhibitor, partial curve, poor fit]"
same,Potency,[3],inactive
same,Potency,[4],"inconclusive: 29.5 µM [inhibitor, single point]"
same,Potency,[6],inactive
c1ccc([C@H]2CN3CCSC3=N2)cc1,Potency,[1],"inconclusive: 10.9 µM [activator, full curve, poor fit]"
same,Potency,[2],inactive
same,Potency,[5],inactive
COc1ccc([C@@H]2CNC(=O)C2)cc1OC1CCCC1,activation,[1],inactive: 7.46%
same,Potency,[3],inactive
same,Potency,[4],inactive
CCCc1cc(C)[nH]c(=O)c1CNC(=O)c1cc(-c2ccc(N3CCN(C(C)C)CC3)nc2)cc2c1cnn2C(C)C,Potency,[1],"inconclusive: 33.8 µM [activator, single point]"
same,Potency,[3],active: 20.9 µM
same,Potency,[4],active: 16.6 µM
CC(C)C[C@@H](C=O)NC(=O)[C@H](CC(C)C)NC(=O)[C@H](CC(C)C)NC(=O)OCc1ccccc1 (Cbz-Leu-Leu-Leu-aldehyde),Potency,[1],active: 2.73 µM
same,Potency,[2],active: 2.35 µM
same,Potency,[6],active: 2.63 µM
CC1(C)CCC(CN2CCN(c3ccc(C(=O)NS(=O)(=O)c4ccc(NCC5CCOCC5)c([N+](=O)[O-])c4)c(Oc4cnc5[nH]ccc5c4)c3)CC2)=C(c2ccc(Cl)cc2)C1,Potency,[1],"inconclusive: 7.38 µM [activator, partial curve, poor fit]"
same,Potency,[3],"inconclusive: 10.5 µM [inhibitor, partial curve]"
same,Potency,[4],"inconclusive: 23.5 µM [inhibitor, partial curve]"
CN1CCN(c2ccc3nc(-c4c(N)c5c(F)cccc5[nH]c4=O)[nH]c3c2)CC1,Potency,[1],"inconclusive: 24.3 µM [activator, partial curve, poor fit]"
same,Potency,[3],active: 0.833 µM
same,Potency,[4],active: 3.32 µM
same,Potency,[5],active: 1.86 µM
CC(C(=O)O)c1cccc(C(=O)c2ccccc2)c1 (stereo unspecified),activation,[1],inactive: 8.47% and inactive: 8.5% and inactive: -11%
same,Potency,[3],inactive
same,Potency,[4],"inconclusive: 33.2 µM [inhibitor, single point]"
same,Potency,[6],inactive
CCn1c(=O)c(-c2ccc(-c3cncs3)cc2Cl)cc2cnc(Nc3ccc(N4CCN(C)CC4)cc3)nc21,Potency,[1],"inconclusive: 21.3 µM [activator, partial curve]"
same,Potency,[3],"inconclusive: 1.86 µM [inhibitor, full curve]"
same,Potency,[4],"inconclusive: 2.95 µM [inhibitor, full curve, poor fit]"
same,Potency,[5],"inconclusive: 5.25 µM [inhibitor, partial curve, poor fit]"
same,Potency,[6],"inconclusive: 2.09 µM [inhibitor, partial curve, poor fit]"
NCCCC(O)(P(=O)(O)O)P(=O)(O)O,activation,[1],inactive: 36.7% and inactive: -7.88%
same,Potency,[3],inactive
same,Potency,[4],inactive
COc1ccc2cc3[n+](cc2c1OC)CCc1cc2c(cc1-3)OCO2,activation,[1],inconclusive: -31.8% [activator]
same,Potency,[2],active: 5.9 µM
same,Potency,[5],"inconclusive: 18.6 µM [inhibitor, partial curve]"
same,Potency,[6],"inconclusive: 29.5 µM [inhibitor, single point]"
Fc1cc(-c2cccc3ncc(-c4cnn(C5CCNCC5)c4)nc23)cc(F)c1CN1CCOCC1,Potency,[1],active: 27.3 µM
same,Potency,[3],active: 2.35 µM
N#Cc1ccc(NC(=O)Nc2ccccc2Br)c2n[nH]nc12,activation,[1],inactive: -2.35%
same,Potency,[3],inactive
same,Potency,[5],"inconclusive: 20.9 µM [inhibitor, partial curve, poor fit]"
C=CC(=O)Nc1cccc(Sc2nc(Nc3ccc(N4CCN(C)CC4)cc3)ncc2Cl)c1,Potency,[1],"inconclusive: 8.63 µM [activator, partial curve, poor fit] and active: 12 µM"
same,Potency,[3],active: 6.61 µM
CN(C)Cc1ccc(S(=O)(=O)n2ccc(/C=C/C(=O)NO)c2)cc1,activation,[1],inconclusive: 33.5% [activator]
same,Potency,[3],"inconclusive: 4.17 µM [inhibitor, full curve, poor fit]"
same,Potency,[4],active: 4.68 µM
Cc1ncc(NC(=O)c2ccc(CN3CCN(C)CC3)c(C(F)(F)F)c2)cc1Nc1nccc(-c2cccnc2)n1,Potency,[1],active: 23.9 µM
same,Potency,[3],active: 0.0295 µM
same,Potency,[5],active: 18.6 µM
c1cnc2cc3c(cc2n1)C1CNCC3C1,Potency,[1],"inconclusive: 27.3 µM [activator, single point]"
same,Potency,[3],inactive
same,Potency,[4],inactive
C=CC(=O)Nc1cc2c(Nc3ccc(F)c(Cl)c3)ncnc2cc1C#CC(C)(C)N1CCN(C)CC1,Potency,[1],"inconclusive: 6.85 µM [activator, full curve, poor fit]"
same,Potency,[3],active: 3.72 µM
CN(C)S(=O)(=O)c1ccc2c(c1)C(=Cc1cc3c([nH]1)CCCC3)C(=O)N2,Potency,[1],active: 1.37 µM
same,Potency,[3],"inconclusive: 4.17 µM [inhibitor, full curve]"
same,Potency,[4],"inconclusive: 4.17 µM [inhibitor, full curve]"
same,Potency,[5],"inconclusive: 1.86 µM [inhibitor, full curve]"
same,Potency,[6],"inconclusive: 3.72 µM [inhibitor, full curve]"
COc1cccc(-c2cc(=O)c3ccccc3o2)c1N,activation,[1],inactive: 10.5% and inactive: -44.6%
same,Potency,[3],"inconclusive: 23.5 µM [inhibitor, partial curve, poor fit]"
same,Potency,[4],inactive
same,Potency,[6],"inconclusive: 23.5 µM [inhibitor, single point]"
O=C(O)C1=CO[C@@H](O[C@@H]2O[C@H](CO)[C@@H](O)[C@H](O)[C@H]2O)[C@@H]2C(CO)=CC[C@H]12,Potency,[1],"inconclusive: 5.88 µM [activator, partial curve, poor fit]"
same,Potency,[2],"inconclusive: 14.8 µM [inhibitor, single point]"
same,Potency,[6],inactive
